In PubChem BioAssay (NCATS):
Values joined by “and” are separate entries in the source; they are usually repeats but may differ in a detail not shown here. Equal values may be shown once. The list shows a part of the results. Shown are side measurements of this screen, not its main read-out; they come without a call. Potencies come from curve fits of mixed quality, noted in brackets.

Assay: qHTS drug screen for cell cycle checkpoint inhibitors in PARPi-resistant BRCA-mutant ovarian cancer cell lines. (AID 1963452)
Details: PEO1/OlaR viability, CellTiter-Glo luminescence, 96 h
Summary of the method: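 PEO1, PEO4 and PEO1/OlaR ovarian cancer cells, 600 per well, exposed 96 h at 37C to a dilution series. Viability read by CellTiter-Glo luminescence, normalized to DMSO and empty wells; activity summarized as Z-AUC.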

[1] = measured here: PEO1 parental viability
Tags give direction and shape of the fitted curve.

Row | Compound | AC50 [1] | AC50 (measured here: PEO4 viability)
1 | Cn1cc(C2=C(c3cn(C)c4cc([N+](=O)[O-])ccc34)C(=O)NC2=O)c2ccccc21 | 7.76 µM [falling, partial curve] | 15.5 µM [falling, partial curve]
2 | CC#CC(=O)N1CC[C@@H](n2c(=O)n(-c3ccc(Oc4ccccc4)cc3)c3c(N)ncnc32)C1 | 13.8 µM [falling, single point] | 24.5 µM [falling, single point]
3 | O=C(NOCCO)c1cc(CN2OCCCC2=O)c(F)c(F)c1Nc1ccc(I)cc1F | 0.195 µM [falling, full curve] | 0.389 µM [falling, full curve]
4 | Cc1ccc(C(=O)c2cc(O)c(O)c([N+](=O)[O-])c2)cc1 | 12.3 µM [falling, single point] | 24.5 µM [falling, single point]
5 | CC(C)(O)CNc1ncc(-c2ccnc(Nc3ccncc3)n2)c(CC2CC2)n1 | 15.5 µM [falling, partial curve] | 24.5 µM [falling, single point]
6 | O=C(/C=C/c1cccnc1)NCCCCC1CCN(C(=O)c2ccccc2)CC1 | 0.011 µM [falling, full curve] | 0.0087 µM [falling, full curve]
7 | COc1cc(OC)c(/C=C/S(=O)(=O)Cc2ccc(OC)c(OP(=O)(O)O)c2)c(OC)c1 | 0.049 µM [falling, full curve] | 0.0436 µM [falling, full curve]
8 | CN[C@H]1CN(c2ccc3c(=O)c(C(=O)O)cn(-c4nccs4)c3n2)C[C@@H]1OC | 502 nM [falling, full curve] and 1.07 µM [falling, full curve, poor fit] | 2.83 µM [falling, partial curve, poor fit] and 13.4 µM [falling, single point]
9 | CS[C@H]1SC[C@@H]2C(=O)N(C)[C@H](C(C)C)C(=O)OC[C@H](NC(=O)c3cnc4ccccc4n3)C(=O)N[C@H](C)C(=O)N(C)[C@H]1C(=O)N(C)[C@H](C(C)C)C(=O)OC[C@H](NC(=O)c1cnc3ccccc3n1)C(=O)N[C@H](C)C(=O)N2C | 0.0062 µM [falling, full curve] | 0.0078 µM [falling, full curve, poor fit]
10 | COc1cc(OC)cc(N2CCN(C(=O)Nc3nc4cc(F)ccc4nc3OC)CC2)c1 | 3.89 µM [falling, full curve] | 4.36 µM [falling, full curve]
11 | CON(C)C(=O)N1N=C(c2cc(F)ccc2F)S[C@@]1(CCCN)c1ccccc1 | 0.0098 µM [falling, full curve] | 0.0087 µM [falling, full curve]
12 | COc1ccc(S(=O)(=O)N(C(C)=O)c2ccccc2/C=C/c2cc[n+]([O-])cc2)cc1 | 0.977 µM [falling, full curve] | 0.977 µM [falling, full curve]
13 | COc1nnc2ccc(N3CCC(c4ccc(OCCN5CCN(C)C(=O)[C@H]5C)cc4)CC3)nn12 | 0.245 µM [falling, full curve] | 0.138 µM [falling, full curve]
14 | COc1ccc2c(c1)[C@]1(C[C@H]1c1ccc3c(/C=C/c4ccc(CN5C[C@@H](C)O[C@@H](C)C5)cc4)n[nH]c3c1)C(=O)N2 | 21.9 µM [falling, single point] | 5.49 µM [falling, partial curve, poor fit]
15 | c1cc(-c2cnn3cc(-c4ccc(N5CCNCC5)cc4)cnc23)c2cccnc2c1 | 21.9 µM [falling, partial curve, poor fit] | 19.5 µM [falling, single point]
16 | Cc1ccc(S(=O)(=O)Nc2cc(C(F)(F)F)ccc2C(=O)Nc2nc(-c3ccccc3)cs2)cc1 | 9.77 µM [falling, partial curve] | 0.871 µM [falling, full curve]
17 | COc1ccc2cc(-c3nc(-c4ccc(S(C)=O)cc4)[nH]c3-c3ccncc3)ccc2c1 (stereo unspecified) | 19.5 µM [falling, partial curve] | 17.4 µM [falling, single point]
18 | CCCc1cc(C(=O)N[C@H](Cc2ccc(-c3cccc(OC(F)(F)F)c3)nc2)C(=O)N[C@@H]2CCNC2)sc1C | 15.5 µM [falling, single point] | 24.5 µM [falling, single point]
